Data published in patent US20110207670A1 (Eli Lilly, published 2011).

B1: human TMD2 (wild-type soluble human thrombomodulin truncated immediately after EGF6, without signal peptide) (receptor)
chain: not shown
notes: also called sTMD2; sTM
B2: TMD[…]A (TMD2 in which the isoleucine at position 424 is substituted with alanine) (receptor)
chain: not shown
notes: Biotinylated with NHS-LC-Biotin and immobilized on a streptavidin chip for the BIAcore assay; also called sTMD[…]A; sTM variant I424A

Legend:
[1] = target: human thrombin (PPACK-inhibited, Enzyme Research Laboratories) (human, UniProt P00734 fragment); assay: BIAcore (SPR), biotinylated sTM on SA chip, PPACK-inhibited human thrombin as analyte, steady-state 1:1 fit
Description: The thrombin binding properties of various human sTM variants are determined using a BIAcore biosensor 2000 instrument. All measurements are performed at room temperature. All experiments are performed in HBS-P (10 mM HEPES, pH 7.4, containing 150 mM NaCl) buffer containing 5 mM CaCl₂. For all binding experiments, biotinylated sTM variants are immobilized on an SA (streptavidin-coated) sensor chip at a level of 200 to 300 response units (RU). Biotinylated sTM variants are prepared by incubating 10 μM sTM variant (0.5 mL) with 50 μM NHS-LC-Biotin for 2 hours at room temperature, followed by dialysis against phosphate buffered saline overnight. The binding of human thrombin (PPACK-inhibited, Enzyme Research Laboratories), mouse thrombin, and rat thrombin are tested.
The binding of thrombin is evaluated using multiple analytical cycles. Each cycle is performed at a flow rate of 100 μL/minute and consists of the following steps: injection of 250 μL of a solution of varying thrombin concentration with two injections for each concentration followed by a 1 minute delay for dissociation. Following the dissociation phase, the biosensor chip surface was regenerated using an injection of 50 μL of 5 mM EDTA, followed by similar injection of running buffer. Concentrations of thrombin ranged from 200 nM to 1.6 nM, and were prepared by serial, two-fold dilutions, starting with 200 nM thrombin. […]

human thrombin = human thrombin (human, UniProt P00734 fragment); assay: protein C activation by thrombin/sTM, kinetic chromogenic assay (TLD=Too Low for Detection; sTM 0 to 250 nM)
Description: A kinetic analysis is done to determine the rate of activation of human protein C by human sTM variants. For each sTM variant, the reactions are set up as follows. In a final 100 μL reaction volume, human protein C is added to a final concentration of 150 nM and human thrombin is added to a final concentration of 2 nM. sTM controls TMD1 and TMD2 or an sTM variant in AB/BSA buffer (150 mM NaCl; 20 mM Tris pH 7.5; 3 mM CaCl₂; 1 mg/mL BSA) is added to the reaction at final concentrations varying from 0 nM to 250 nM. The reaction mixture is incubated 30 minutes at 37° C. 25 μL of each reaction is removed to a 96 well plate containing 150 μL of Thrombin Stop Buffer (1 unit/ml hirudin in 150 mM NaCl; 20 mM Tris pH 7.5; 3 mM CaCl₂) and incubated for 5 minutes at room temperature. 25 μL of a 4 μM stock solution of S2366 chromogenic substrate (L-Pyroglutamyl-L-prolyl-L-arginine-p-Nitroaniline hydrochloride, Chromogenix) is added and mixed briefly. The Optical Density at 405 nm (OD405) is read on a microplate spectrophotometer in a five minute kinetic read with a 6 second read interval. Michaelis Menton kinetic constants are calculated from the kinetic data using SigmaPlot software with the Enzyme Kinetics Module 1.1. This method was based in part on the protocol described in Grinnell et al., 1994 Biochem J. 303: 929-933.

Row | Binder | Kd [1] | binding result (human thrombin)
1 | B1 | 10.1 nM | –
2 | B2 | – | no binding
